{
  "source": "patent US9274101B2",
  "about": "(BIOLOG, Inc., priority 2001, dated 2016)",
  "test_system": "E. coli 287 (ATCC #11775)",
  "experiment": "Carbon source utilization in GN / SF-N MICROPLATE with redox purple, tetrazolium violet or resazurin",
  "key": {"[1]": {"conditions": "redox purple, 0.85% NaCl suspension"}, "[2]": {"conditions": "the remaining results (all indicator/suspension combinations except redox purple in 0.85% NaCl)"}, "[3]": {"conditions": "resazurin, 0.2% carrageenan suspension"}, "[4]": {"conditions": "resazurin, 0.85% NaCl suspension"}, "[5]": {"conditions": "tetrazolium violet and resazurin, both suspensions"}, "[6]": {"conditions": "tetrazolium violet, 0.2% carrageenan suspension"}, "[7]": {"conditions": "tetrazolium violet, 0.85% NaCl suspension"}},
  "data": [
    {"compound": "OC[C@H]1O[C@@H](O[C@@H]2[C@@H](CO)OC(O)(CO)[C@H]2O)[C@H](O)[C@@H](O)[C@H]1O", "note": "(mixture of isomers) [Lactulose]", "values": [
      {"measurement": "carbon source utilization result", "setting": "[1]", "value": "negative"},
      {"measurement": "carbon source utilization result", "setting": "[2]", "value": "positive"}
    ]},
    {"compound": "CC(O)C(C)O", "note": "(stereo not shown) [2,3-butanediol]", "values": [
      {"measurement": "carbon source utilization result", "setting": "[3]", "value": "positive/negative"},
      {"measurement": "carbon source utilization result", "setting": "[4]", "value": "negative"}
    ]},
    {"compound": "NCCO", "note": "[2-amino ethanol]", "values": [
      {"measurement": "carbon source utilization result", "setting": "[3]", "value": "positive/negative"},
      {"measurement": "carbon source utilization result", "setting": "[4]", "value": "negative"}
    ]},
    {"compound": "O=C(CO)[C@H](O)[C@H](O)[C@H](O)CO", "note": "[D-psicose]", "values": [
      {"measurement": "carbon source utilization result", "setting": "redox purple, […]", "value": "negative"},
      {"measurement": "carbon source utilization result", "setting": "[5]", "value": "positive"}
    ]},
    {"compound": "OC[C@H]1O[C@H](OC[C@H]2O[C@H](O[C@]3(CO)O[C@H](CO)[C@@H](O)[C@@H]3O)[C@H](O)[C@@H](O)[C@@H]2O)[C@H](O)[C@@H](O)[C@H]1O", "note": "[D-raffinose]", "values": [
      {"measurement": "carbon source utilization result", "setting": "[1]", "value": "negative"},
      {"measurement": "carbon source utilization result", "setting": "[2]", "value": "positive"}
    ]},
    {"compound": "O=C(O)[C@@H](O)[C@@H](O)[C@H](O)[C@@H](O)C(=O)O", "note": "[D-saccharic acid]", "values": [
      {"measurement": "carbon source utilization result", "setting": "redox purple, […]", "value": "negative"},
      {"measurement": "carbon source utilization result", "setting": "[3]", "value": "positive"},
      {"measurement": "carbon source utilization result", "setting": "[4]", "value": "negative"},
      {"measurement": "carbon source utilization result", "setting": "[6]", "value": "negative"},
      {"measurement": "carbon source utilization result", "setting": "[7]", "value": "equivocal (±)"}
    ]},
    {"compound": "NC(=O)[C@@H](O)[C@@H](O)[C@H](O)[C@@H](O)C=O", "note": "[Glucuronamide]", "values": [
      {"measurement": "carbon source utilization result", "setting": "redox purple, […]", "value": "negative"},
      {"measurement": "carbon source utilization result", "setting": "[5]", "value": "positive"}
    ]},
    {"compound": "N[C@@H](CCC(=O)O)C(=O)O", "note": "[L-glutamic acid]", "values": [
      {"measurement": "carbon source utilization result", "setting": "[1]", "value": "negative"}
    ]},
    {"compound": "NCCC[C@H](N)C(=O)O", "note": "[L-ornithine]", "values": [
      {"measurement": "carbon source utilization result", "setting": "[3]", "value": "positive"},
      {"measurement": "carbon source utilization result", "setting": "[4]", "value": "negative"}
    ]},
    {"compound": "N[C@@H](Cc1ccccc1)C(=O)O", "note": "[L-phenylalanine]", "values": [
      {"measurement": "carbon source utilization result", "setting": "[3]", "value": "positive/negative"},
      {"measurement": "carbon source utilization result", "setting": "[4]", "value": "negative"}
    ]},
    {"compound": "O=C1CC[C@@H](C(=O)O)N1", "note": "[L-pyroglutamic acid]", "values": [
      {"measurement": "carbon source utilization result", "setting": "[3]", "value": "positive/negative"},
      {"measurement": "carbon source utilization result", "setting": "[4]", "value": "negative"}
    ]},
    {"compound": "C[C@@H](O)[C@H](N)C(=O)O", "note": "[L-threonine]", "values": [
      {"measurement": "carbon source utilization result", "setting": "redox purple, 0.2% carrageenan suspension", "value": "equivocal (±)"},
      {"measurement": "carbon source utilization result", "setting": "[1]", "value": "negative"},
      {"measurement": "carbon source utilization result", "setting": "[3]", "value": "positive"},
      {"measurement": "carbon source utilization result", "setting": "[4]", "value": "positive"},
      {"measurement": "carbon source utilization result", "setting": "[6]", "value": "equivocal (±)"},
      {"measurement": "carbon source utilization result", "setting": "[7]", "value": "positive"}
    ]},
    {"compound": "O[C@H]1[C@H](O)[C@@H](O)[C@H](O)[C@@H](O)[C@H]1O", "note": "[M-inositol]", "values": [
      {"measurement": "carbon source utilization result", "setting": "[3]", "value": "positive/negative"},
      {"measurement": "carbon source utilization result", "setting": "[4]", "value": "negative"}
    ]},
    {"compound": "NCCc1ccccc1", "note": "[Phenylethyl amine]", "values": [
      {"measurement": "carbon source utilization result", "setting": "[3]", "value": "positive/negative"},
      {"measurement": "carbon source utilization result", "setting": "[4]", "value": "negative"}
    ]},
    {"compound": "OC[C@H]1O[C@@](CO)(O[C@H]2O[C@H](CO)[C@@H](O)[C@H](O)[C@H]2O)[C@@H](O)[C@@H]1O", "note": "[Sucrose]", "values": [
      {"measurement": "carbon source utilization result", "setting": "[3]", "value": "positive"},
      {"measurement": "carbon source utilization result", "setting": "[4]", "value": "negative"}
    ]},
    {"compound": "NC(=O)CCC(=O)O", "note": "[succinamic acid]", "values": [
      {"measurement": "carbon source utilization result", "setting": "redox purple, […]", "value": "negative"},
      {"measurement": "carbon source utilization result", "setting": "[5]", "value": "positive"}
    ]},
    {"compound": "O=C(CO)[C@@H](O[C@H]1O[C@H](CO)[C@@H](O)[C@H](O)[C@H]1O)[C@H](O)[C@H](O)CO", "note": "[turanose]", "values": [
      {"measurement": "carbon source utilization result", "setting": "redox purple, […]", "value": "negative"},
      {"measurement": "carbon source utilization result", "setting": "[3]", "value": "positive"},
      {"measurement": "carbon source utilization result", "setting": "[4]", "value": "equivocal (±)"},
      {"measurement": "carbon source utilization result", "setting": "tetrazolium violet, both suspensions", "value": "equivocal (±)"}
    ]},
    {"compound": "CCC(O)C(=O)O", "note": "(stereo not drawn) [α-hydroxy butyric acid]", "values": [
      {"measurement": "carbon source utilization result", "setting": "[1]", "value": "negative"},
      {"measurement": "carbon source utilization result", "setting": "[2]", "value": "positive"}
    ]},
    {"compound": "glycogen", "values": [
      {"measurement": "carbon source utilization result", "setting": "redox purple, […]", "value": "negative"},
      {"measurement": "carbon source utilization result", "setting": "[5]", "value": "positive"}
    ]}
  ]
}
